Measurements taken from PMC3701669.
Results are given in words; binding and its absence hold for the method and conditions named. Binding seen in cells or lysates may run through a third protein. Some results given as binding are weak or reduced against the parent protein; the word gives no strength. Tags and fused reporters may be left off the sequences shown. Each block holds one binder with its values, some of them ahead of it.

Target: T1, GST-LHX3a (full-length LHX3 protein) (human) (UniProt Q9UBR4)
T1 sequence: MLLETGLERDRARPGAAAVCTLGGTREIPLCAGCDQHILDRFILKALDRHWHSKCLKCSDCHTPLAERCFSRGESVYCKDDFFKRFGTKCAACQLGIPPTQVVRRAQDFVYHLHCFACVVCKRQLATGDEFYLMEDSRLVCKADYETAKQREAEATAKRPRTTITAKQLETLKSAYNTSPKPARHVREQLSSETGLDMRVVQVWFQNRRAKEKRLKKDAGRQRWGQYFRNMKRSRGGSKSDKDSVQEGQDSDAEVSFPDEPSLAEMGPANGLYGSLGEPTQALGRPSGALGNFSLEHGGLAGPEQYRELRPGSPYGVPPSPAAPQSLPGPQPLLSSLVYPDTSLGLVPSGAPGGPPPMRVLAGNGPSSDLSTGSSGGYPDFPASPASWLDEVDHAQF
Assay: pull-down; GST-LHX3 fusion on glutathione-agarose resin; 200,000 cpm of 35S-labeled in vitro translated protein (rabbit reticulocyte lysate or wheat germ extract); 20 mM HEPES pH 7.9, 300 mM NaCl, 1 mM EDTA, 4 mM MgCl2, 0.02% NP-40, 10% glycerol, 1 mM ZnCl2, 1 mM DTT, 20 µg/ml ethidium bromide; 1 hour at 4°C; SDS-PAGE, autoradiography; GST alone as control; only the target purified

binding: binds
B1: LANP deletion construct, amino acids 60–249 (domain or fragment, UniProt P39687 60-249)
chain: LPKLNKLKKLELSDNRVSGGLEVLAEKCPNLTHLNLSGNKIKDLSTIEPLKKLENLKSLDLFNCEVTNLNDYRENVFKLLPQLTYLDGYDRDDKEAPDSDAEGYVEGLDDEEEDEDEEEYDEDAQVVEDEEDEDEEEEGEEEDVSGEEEEDEEGYNDGEVDDEEDEEELGEEERGQKRKREPEDEGEDDD
modifications: 35S-methionine or 35S-cysteine label

binding: binds
B2: LANP deletion construct, amino acids 120–249 (domain or fragment, UniProt P39687 120-249)
chain: LFNCEVTNLNDYRENVFKLLPQLTYLDGYDRDDKEAPDSDAEGYVEGLDDEEEDEDEEEYDEDAQVVEDEEDEDEEEEGEEEDVSGEEEEDEEGYNDGEVDDEEDEEELGEEERGQKRKREPEDEGEDDD
modifications: 35S-methionine or 35S-cysteine label

binding: no binding
B3: LANP INHATII domain (amino acids 190–249) (domain or fragment, UniProt P39687 190-249)
chain: EDEDEEEEGEEEDVSGEEEEDEEGYNDGEVDDEEDEEELGEEERGQKRKREPEDEGEDDD
modifications: 35S-methionine or 35S-cysteine label

binding: no binding
B4: LANP deletion construct, amino acids 1–189 (domain or fragment, UniProt P39687 1-189)
chain: MEMGRRIHLELRNRTPSDVKELVLDNSRSNEGKLEGLTDEFEELEFLSTINVGLTSIANLPKLNKLKKLELSDNRVSGGLEVLAEKCPNLTHLNLSGNKIKDLSTIEPLKKLENLKSLDLFNCEVTNLNDYRENVFKLLPQLTYLDGYDRDDKEAPDSDAEGYVEGLDDEEEDEDEEEYDEDAQVVEDE
modifications: 35S-methionine or 35S-cysteine label

binding: binds
B5: LANP deletion construct, amino acids 150–249 (domain or fragment, UniProt P39687 150-249)
chain: RDDKEAPDSDAEGYVEGLDDEEEDEDEEEYDEDAQVVEDEEDEDEEEEGEEEDVSGEEEEDEEGYNDGEVDDEEDEEELGEEERGQKRKREPEDEGEDDD
modifications: 35S-methionine or 35S-cysteine label

binding: no binding
B6: LANP deletion construct, amino acids 1–150 (domain or fragment, UniProt P39687 1-150)
chain: MEMGRRIHLELRNRTPSDVKELVLDNSRSNEGKLEGLTDEFEELEFLSTINVGLTSIANLPKLNKLKKLELSDNRVSGGLEVLAEKCPNLTHLNLSGNKIKDLSTIEPLKKLENLKSLDLFNCEVTNLNDYRENVFKLLPQLTYLDGYDR
modifications: 35S-methionine or 35S-cysteine label

binding: no binding
B7: LANP deletion construct, amino acids 1–180 (domain or fragment, UniProt P39687 1-180)
chain: MEMGRRIHLELRNRTPSDVKELVLDNSRSNEGKLEGLTDEFEELEFLSTINVGLTSIANLPKLNKLKKLELSDNRVSGGLEVLAEKCPNLTHLNLSGNKIKDLSTIEPLKKLENLKSLDLFNCEVTNLNDYRENVFKLLPQLTYLDGYDRDDKEAPDSDAEGYVEGLDDEEEDEDEEEYD
modifications: 35S-methionine or 35S-cysteine label
